# Results as given in PubChem BioAssay AID624170 (National Center for Advancing Translational Sciences (NCATS), 2012).
# Among all 410,000 compounds or so, about 850 (0.21%) were called active. This list was built around the results that the source calls inconclusive (neither active nor inactive); the mix of calls is not that of the screen. The call rests on the fitted dose curve; in most records, active means well fitted inhibition curve with a large enough effect; inconclusive means small, poorly fitted or top-dose-only effect, or another doubt; inactive means no such curve, though single readings can be large or run the other way. Potencies of inconclusive entries are left out as doubtful fits.
# Target: Glutaminase kidney isoform, mitochondrial (Homo sapiens) (UniProt O94925)
# Test: qHTS for Inhibitors of Glutaminase (GLS)
# Settings: GLS enzymatic activity, qHTS titration; series mostly up to 45.5 µM; activity change, negative = inhibition: at the top concentration
# Summary of the method: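 Assay buffer: 45 mM KH2PO4 pH 8.2, 0.02% Tween-20. hKGA acts on L-glutamine (1 mM solution added); product glutamate is reported by an oxidase/peroxidase Amplex Red coupling, with fluorescence taken at baseline and 30 min.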
# On the % scale 0 is the no-effect control and ±100 the full control effect; potency means the concentration at half of the fitted maximal effect; tags describe the fitted curve by direction and shape.
# UniProt O94925, sequence (O94925 whole entry, looked up, canonical isoform): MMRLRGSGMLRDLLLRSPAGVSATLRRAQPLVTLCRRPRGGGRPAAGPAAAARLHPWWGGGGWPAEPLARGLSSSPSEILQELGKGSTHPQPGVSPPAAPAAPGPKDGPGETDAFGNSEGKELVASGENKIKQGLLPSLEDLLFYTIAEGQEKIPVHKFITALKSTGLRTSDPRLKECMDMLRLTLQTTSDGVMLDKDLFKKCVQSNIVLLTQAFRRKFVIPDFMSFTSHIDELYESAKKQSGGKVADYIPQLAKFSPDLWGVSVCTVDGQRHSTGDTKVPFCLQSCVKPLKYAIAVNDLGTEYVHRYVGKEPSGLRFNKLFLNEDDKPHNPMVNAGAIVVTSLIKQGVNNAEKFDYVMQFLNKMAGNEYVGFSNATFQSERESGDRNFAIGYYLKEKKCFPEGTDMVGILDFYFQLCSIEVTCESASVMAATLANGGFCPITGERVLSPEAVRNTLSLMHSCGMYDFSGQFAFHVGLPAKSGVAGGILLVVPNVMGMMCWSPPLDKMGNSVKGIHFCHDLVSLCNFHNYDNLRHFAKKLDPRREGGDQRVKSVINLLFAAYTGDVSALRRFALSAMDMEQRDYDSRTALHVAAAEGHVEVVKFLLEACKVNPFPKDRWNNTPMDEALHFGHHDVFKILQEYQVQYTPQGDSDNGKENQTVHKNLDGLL
SMILES,Potency,"activity change, negative = inhibition"
CC(=O)c1sc(NC(=O)c2cc(=O)c3ccccc3o2)nc1C,"inconclusive [inhibitor, single point]",–
Cc1ccc(S(=O)(=O)N2CCCCC2)c2nsnc12,"inconclusive [inhibitor, single point]",–
CCOC(=O)c1ccc(COc2ccc(C(C)C)cc2)o1,"inconclusive [inhibitor, partial curve, poor fit]",–
CCCCC1=CC2=CC(=O)C(C)(OC(=O)CC)C(=O)C2=CN1Cc1ccco1 (stereo not drawn),"inconclusive [inhibitor, single point]",–
CCOc1ccc(/C(O)=C2\C(=O)C(=O)N(c3ccc(OC)cc3)C2c2ccccc2[N+](=O)[O-])cc1 (stereo not drawn),"inconclusive [inhibitor, single point]",–
O=C(O)CCNc1ccc(NCCC(=O)O)c2c1C(=O)c1ccccc1C2=O,"inconclusive [inhibitor, single point]",–
COc1cc(/C=N/Nc2ccc(Cl)c(C(=O)O)c2)ccc1OC(=O)c1ccc(F)cc1,–,inactive: 0.427%
COc1ccc(/C=C(/C(=O)c2cccs2)N2C=CC=CC2=C(C#N)C#N)cc1,"inconclusive [inhibitor, partial curve]",–
O=C(Nc1ccccc1Cl)Oc1ccc(-c2ccccc2)cc1,–,inactive: -18.5%
N#Cc1cnn(-c2cc(Cl)ccc2Cl)c1N,"inconclusive [inhibitor, partial curve, poor fit]",–
COc1ccc(NC(=O)c2noc3c2CCC3)cc1,"inconclusive [inhibitor, single point]",–
Cc1cc(/C=C(\C#N)C(=O)NCc2ccco2)c(C)n1-c1ccc(C(=O)O)cc1,"inconclusive [inhibitor, single point]",–
CC1=NN(c2ccccc2)C(=O)/C1=C\c1cc(C)n(-c2cccnc2)c1C,–,inactive: 7.04%
COC(=O)c1sc(N2C(=O)C(O)=C(C(=O)c3ccc(C)o3)C2c2cccs2)nc1C (stereo not drawn),"inconclusive [inhibitor, single point]",–
COc1ccc(CNC(=O)C2CC=CCC2C(=O)O)cc1OC (stereo not drawn),–,inactive: 7.15%
CCOC(=O)C1=C(C)C(c2ccc(OC)cc2)NC(=S)N1 (stereo not drawn),"inconclusive [inhibitor, single point]",–
COc1ccc(C2Nc3ccc(Br)cc3C(c3ccccc3)N2CC(=O)O)cc1 (stereo not drawn),"inconclusive [inhibitor, partial curve, poor fit]",–
O=C(O)CC(C(=O)O)N1C(=O)/C(=C/C=C/c2ccco2)SC1=S (stereo not drawn),active: 2.82 µM,–
C=CCNC(=O)NC(=O)CN1C(=O)NC(c2ccccc2)(c2ccccc2)C1=O,"inconclusive [inhibitor, single point]",–
CC(=O)C(=Nc1ccccc1Cl)NNc1ccc(Cl)cc1,"inconclusive [inhibitor, single point]",–
CCS(=O)(=O)c1ccc2oc(=O)c(/C=C(\O)c3ccc(Cl)cc3)nc2c1,"inconclusive [inhibitor, partial curve, poor fit]",–
CC(C)COc1ccc(N)cc1OCC(C)C,"inconclusive [inhibitor, partial curve, poor fit]",–
CC(C)NC(=O)Nc1ccc2c(c1)C(=O)N([C@H](C)CO)C[C@H](C)[C@@H](CN(C)S(C)(=O)=O)O2,–,inactive: -2.1%

SMILES,Potency,"activity change, negative = inhibition"
COc1cccc(C2c3c(oc4ccc(Cl)cc4c3=O)C(=O)N2c2cc(C)on2)c1OC (stereo not drawn),–,inactive: 2.66%
Cc1ccc(S(=O)(=O)NC(=O)c2cc(C)n(-c3ccccc3)c2C)cc1,–,inactive: 10.5%
C/C(CC(=O)Nc1ccc(Cl)c(C(F)(F)F)c1)=N\NC(N)=S,"inconclusive [inhibitor, single point]",–
O=C(CSc1cccc[n+]1[O-])c1cc(Cl)ccc1Cl,"inconclusive [inhibitor, partial curve, poor fit]",–
Cc1cc(NC(=O)CSc2nnc(C3COc4ccccc4O3)n2N)no1 (stereo not drawn),"inconclusive [inhibitor, single point]",–
CS(=O)(=O)N(CC(=O)NCc1ccc(Cl)cc1)C1CCCCC1,"inconclusive [inhibitor, single point]",–
COc1ccc(C(=O)NCC(c2cccnc2)N2CCc3ccccc3C2)cc1OC (stereo not drawn),–,inactive: -1.44%
COC(=O)/C(=C/Nc1ccc(O)cc1)[N+](=O)[O-],–,inactive: 28.8%
CC1=NN(c2nc(-c3ccc(C)cc3)cs2)C(=O)C1N=Nc1cccc(O)c1 (stereo not drawn),"inconclusive [inhibitor, single point]",–
Cc1ccc(-n2sc3cc(F)ccc3c2=O)c(C)c1,"inconclusive [inhibitor, single point]",–
Cc1cc(C)c2c(=O)[nH]n(C3CCOC(C)(C)C3)c2n1 (stereo not drawn),"inconclusive [inhibitor, partial curve, poor fit]",–
CCn1nc([N+](=O)[O-])c(C(C#N)c2nc3cc(C(F)(F)F)ccc3s2)c(Cl)c1=O (stereo not drawn),–,inactive: 16.7%
O=C(CCNS(=O)(=O)c1ccc2ccccc2c1)NCCOc1ccccc1,"inconclusive [inhibitor, single point]",–
Cc1ccc(NC(=O)CSCn2nnc3c(=O)[nH]c(Cc4ccc(F)cc4)nc32)c(C)c1,"inconclusive [inhibitor, single point]",–
NNC(=O)CC(=O)NC1(Cc2ccc(O)cc2)CCCCC1,"inconclusive [inhibitor, single point]",–
O=C(Oc1ccc2ccc(O)cc2c1)C1CCCCC1,"inconclusive [inhibitor, partial curve, poor fit]",–
Cn1c(/N=C/c2c(O)ccc3ccccc23)nc2ccccc21,"inconclusive [inhibitor, single point]",–
COC(=O)c1ccc(N2NC(=O)/C(=C/c3ccc(-c4ccc(Cl)c(C(=O)O)c4)o3)C2=O)cc1,"inconclusive [inhibitor, single point]",–
c1ccc(Nc2nc(-c3ccccn3)cs2)cc1,"inconclusive [inhibitor, partial curve]",–
COc1cccc(C(=O)Nc2cc(-c3cn4cccnc4n3)ccc2C)c1OC,–,inactive: -12.8%
Cn1c(O)c(N=NC(=O)c2ccccc2O)c2ccccc21,"inconclusive [inhibitor, single point]",–
CNCCCC12CCC(c3ccccc31)c1ccccc12,inactive,–
CCOC(=O)c1c(/N=C/C2=C(O)CC(C)(C)CC2=O)sc(C(C)=O)c1C,"inconclusive [inhibitor, single point]",–

SMILES,Potency,"activity change, negative = inhibition"
COc1ccc(N2CCN(C(=O)COc3ccc4ccccc4c3)CC2)cc1,–,inactive: -0.55%
CC1CN(C(=O)CSc2nnc(-c3ccc(Cl)cc3)n2C)CC(C)O1 (stereo not drawn),–,inactive: 3.85%
CC(=O)c1c(C)[nH]c(C(=O)OCC(=O)NC(C)c2ccccc2)c1C (stereo not drawn),–,inactive: -1.12%
COc1cccc(N=Nc2c(N)[nH][nH]c2=O)c1,"inconclusive [inhibitor, single point]",–
COc1ccc(C)cc1NC(=O)C(=O)NCCc1sc(-c2ccc(Cl)cc2)nc1C,–,inactive: 12.7%
CCc1ccc(CNC(=O)c2ccc(CSc3nc4ccncc4n3Cc3ccc(OC)cc3)cc2)cc1,"inconclusive [inhibitor, single point]",–
CCOc1ccccc1C1C(C#N)=C(N)Oc2cc(C)n(Cc3ccccn3)c(=O)c21 (stereo not drawn),–,inactive: 27.9%
O=C(NNc1ncnc2sccc12)c1ccc(Cl)cc1,"inconclusive [inhibitor, partial curve]",–
Cc1ccc2ncc(C(=O)NCc3ccccc3Cl)c(=O)n2c1,"inconclusive [inhibitor, single point]",–
O=C1OC[C@@H]2CCCN2C(=O)[C@@H](CC(=O)N(CCO)Cc2ccccc2)C/C=C\CC[C@H]1Cc1ccc(F)cc1,–,inactive: 2.67%
Cc1ccc(NC(=O)CSc2nc3ccccc3c3nc(CCn4cncc4C)nn23)cc1F,"inconclusive [inhibitor, partial curve, poor fit]",–
O=C(CCCCn1c(=O)c2ccccc2n(Cc2ccc(Cl)cc2)c1=O)NCc1ccccc1Cl,–,inactive: -9.68%
COc1cccc(N2C(=O)CC(NNC(=O)c3cccs3)C2=O)c1 (stereo not drawn),"inconclusive [inhibitor, partial curve]",–
CCOC(=O)c1ccccc1NC(=O)N[C@@H](C)C(=O)OC,"inconclusive [inhibitor, single point]",–
O=C(c1cc(C2CC2)nn1-c1ccccc1)N1CCN(c2ccccc2O)CC1,"inconclusive [inhibitor, partial curve]",–
CCCCNC(=O)CCC(=O)NNc1nc2ccccc2c2nc(-c3ccccc3)nn12,inactive,–
Oc1cc2c(cc1O)CN(C(=S)NCCc1ccc(Cl)cc1)CCC2,"inconclusive [inhibitor, single point]",–
Cc1noc(C)c1/C=N/Nc1ccccn1,"inconclusive [inhibitor, partial curve]",–
CC1CCCN(C(=O)CSc2nnc(-c3ccc(O)cc3)o2)C1 (stereo not drawn),"inconclusive [inhibitor, single point]",–
COc1ccc(NC(=O)CNC(c2ccccc2)c2ccccc2)cc1Cl,"inconclusive [inhibitor, single point]",–
CCc1c(C)sc2c1CCN(C(=O)Nc1ccccc1C(F)(F)F)C2c1ccccc1 (stereo not drawn),–,inactive: -3.76%
O=C(Nc1c(F)cc(F)cc1Br)c1cc(-c2ccc(O)cc2)on1,"inconclusive [inhibitor, single point]",–
